Test in all cases: cells
What all share (type): functional

In experiment [1] the test system is P388/ADR. To be noted: Mus musculus.
Experiment [2] relates to P388. The following applies: Mus musculus.
In experiment [3] the test system is SN12K1. To be noted: Homo sapiens.

The structures appear in SMILES notation. The source made the active and inactive calls. Rule as the data show it: active = GI50 up to about 1.1 µM and inactive = higher.

Turning to `COc1c(O)cc2c(c1OC)-c1ccc(OC)c(=O)cc1[C@@H](NC(C)=O)CC2` [3-DESMETHYLCOLCHICIN], the GI50 is inactive: 9530 nM in experiment [1], active: < 31.2 nM in experiment [2] and active: < 31.2 nM in experiment [3].

These data come from ChEMBL document CHEMBL1201862, “PubChem BioAssay data set” (2004).
